Source: PubChem BioAssay AID2675 (National Center for Advancing Translational Sciences (NCATS), 2010)
The whole screen tested about 280,000 compounds, of which about 100 (0.036%) were called active. Inconclusive results, whose numbers are uncertain, are shown with a selection of clear calls. Calls follow the shape of the dose curve; as a rule, active = well fitted inhibition curve with a large enough effect in the signal ratio, with a control signal flat (not every such curve was filed as active); inconclusive = small, poorly fitted or top-dose-only effect, or effect the other way, or a change in a side signal; inactive = no such curve, though single readings can be large or run the other way; the % refers to the signal ratio. Potencies of inconclusive entries are doubtful fits and often do not repeat. A note “side channel” means that the fit belongs to a control or component signal, not to the main read-out.
Potency is read from the fitted curve at half-maximal effect; tags tell the direction and shape of the fitted curve or compound fluorescence and quenching.

What follows are compounds tested against Muscleblind-like protein 1 (Homo sapiens) (UniProt Q9NR56) (assay: qHTS Assay for Inhibitors of MBNL1-poly(CUG) RNA binding). Details: TR-FRET MBNL1-His/biotin-(CUG)12 binding, 665/545 ratio; series mostly up to 57.5 µM.
Sequence of UniProt Q9NR56 (Q9NR56 whole entry, looked up): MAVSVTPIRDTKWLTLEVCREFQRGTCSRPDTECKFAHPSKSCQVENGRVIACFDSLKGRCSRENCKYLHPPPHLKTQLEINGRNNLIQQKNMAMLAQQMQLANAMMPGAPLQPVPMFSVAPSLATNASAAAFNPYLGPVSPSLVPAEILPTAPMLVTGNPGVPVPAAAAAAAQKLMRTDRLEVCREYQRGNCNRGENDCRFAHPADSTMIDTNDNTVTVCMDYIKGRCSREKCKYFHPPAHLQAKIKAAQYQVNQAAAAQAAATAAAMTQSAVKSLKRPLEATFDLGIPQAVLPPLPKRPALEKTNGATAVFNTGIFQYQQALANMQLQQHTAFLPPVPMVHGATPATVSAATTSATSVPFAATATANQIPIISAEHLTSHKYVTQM
How it was run: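 Inhibition of protein-RNA binding appears as loss of TR-FRET between terbium anti-His antibody on MBNL1-His and streptavidin-XL665 on biotin-(CUG)12. Activity is normalized to buffer-only and uninhibited-complex controls.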
With CCOC(=O)N1CCN(C(=O)/C=C/c2cccc([N+](=O)[O-])c2)CC1 the Potency was inconclusive: 39.8 µM [quencher, single point].
CC(=O)Nc1ccc(S(=O)(=O)Nc2nc3ccccc3nc2Nc2cccc(O)c2)cc1 was tested, and the Potency was “inactive”.
In the case of CCCCn1c(N)c(C(=S)NC(=O)CC(C)(C)C)c(=O)n(C)c1=O, the Potency is reported as “inactive”.
O=C(NCc1csc(-c2cccs2)n1)c1ccsc1 was tested, and the Potency was inconclusive: 20 µM [quencher, side channel, single point].
With CN(C)c1ncnc2c1NC1=C(S2)C(=NCCCC(=O)O)CC(C)(C)C1 the Potency was inconclusive: 22.4 µM [quencher, side channel, single point].
COc1ccccc1C(c1nnnn1Cc1ccco1)N1CCN(c2cccc(C)c2C)CC1 (configuration not stated) was tested, and the Potency was “inactive”.
With Cc1cc(C)n(C(=O)Cn2nc([N+](=O)[O-])c(Br)c2C)n1 the Potency was inconclusive: 28.2 µM [quencher, side channel, single point].
With N#Cc1cc(NCC2CCCO2)c([N+](=O)[O-])cc1C#N (configuration not stated) the Potency was inconclusive: 7.08 µM [quencher, side channel, partial curve].
For COc1ccc(C(=O)N2CCN(c3cccc(Cl)c3)CC2)cc1, the Potency was “inactive”.
COc1cc(/C=C/c2[nH]c(=O)[nH]c(=O)c2[N+](=O)[O-])cc([N+](=O)[O-])c1O was tested, and the Potency was inconclusive: 17.8 µM [quencher, side channel, partial curve].
CCCCNc1c([N+](=O)[O-])c(=O)n(C)c2ccccc12 was tested, and the Potency was inconclusive: 39.8 µM [quencher, side channel, single point].
O=C(Nc1cccc(Br)c1)c1ccc(Cl)c(S(=O)(=O)N2CCOCC2)c1 was tested, and the Potency was inconclusive: 100 µM [inhibitor, partial curve, poor fit].
Cc1sc(NC(=O)CN2CCOCC2)nc1-c1ccc2c(c1)CCN2S(=O)(=O)c1ccccc1 was tested, and the Potency was “inactive”.
For CCC(C)c1ccc(NC(=O)c2c([N+](=O)[O-])cnn2CC)cc1 (configuration not stated), the Potency was inconclusive: 28.2 µM [quencher, side channel, single point].
With Cc1c(-c2ccccc2)nc2ccccc2c1C(=O)NCc1cccs1 the Potency was inconclusive: 17.8 µM [fluorescent, side channel, partial curve].
For O=C1Nc2ccc([N+](=O)[O-])cc2OC1CCN1CCOCC1 (configuration not stated), the Potency was inconclusive: 17.8 µM [quencher, side channel, partial curve].
With O=C(N/N=C/c1sc(N2CCCCC2)nc1-c1cccs1)c1cccnc1 the Potency was inconclusive: 15.8 µM [quencher, side channel, partial curve].
For COc1ccc([N+](=O)[O-])cc1NC(=O)CN(C)S(=O)(=O)c1ccccc1, the Potency was inconclusive: 20 µM [quencher, side channel, single point].
For CC(C)c1c(C(=O)N/N=C/c2ccco2)nnn1-c1nonc1N, the Potency was inconclusive: 14.1 µM [quencher, partial curve].
In the case of CCOC(=O)c1ccc(/C=N/O)[n+](Cc2ccccc2)c1, the Potency is reported as inconclusive: 12.6 µM [quencher, side channel, partial curve].
For CC1CCC2CCCCC2N1C(=O)c1cc([N+](=O)[O-])cc([N+](=O)[O-])c1 (configuration not stated), the Potency was inconclusive: 3.16 µM [quencher, side channel, full curve].
O=C(c1cccnc1)N1CCN(c2ccc([N+](=O)[O-])cc2Cl)CC1 was tested, and the Potency was inconclusive: 14.1 µM [quencher, side channel, partial curve].
O=[N+]([O-])c1ccc(S(=O)(=O)NNC(=S)NCCc2ccccc2)cc1 was tested, and the Potency was inconclusive: 25.1 µM [quencher, side channel, partial curve].
CC[n+]1c(/C=C/c2ccc(OC(C)=O)c(OC)c2)ccc2ccccc21 was tested, and the Potency was inconclusive: 0.1 µM [quencher, side channel, full curve].
In the case of O=S(=O)(NCCC1=CCCCC1)c1cccc2nsnc12, the Potency is reported as inconclusive: 28.2 µM [quencher, side channel, partial curve].
In the case of Cc1ccc(S(=O)(=O)N(C)C)cc1NC(=O)COC(=O)/C=C/c1cnc2ccccc2n1, the Potency is reported as inconclusive: 39.8 µM [fluorescent, single point].
With O=C(Cn1c(SCC(=O)N2CCc3ccccc32)nc2ccccc21)NC1CCCC1 the Potency was “inactive”.
With CCCCNS(=O)(=O)c1ccc(S(=O)(=O)N2CCC3(CC2)OCCO3)cc1 the Potency was inconclusive: 2.82 µM [fluorescent, side channel, full curve].
With COc1ccc2nc(/C(C#N)=C\c3ccc(Oc4ccc([N+](=O)[O-])cn4)cc3)[nH]c2c1 the Potency was inconclusive: 35.5 µM [quencher, side channel, single point].
CC(C)CC(=O)N1CCN(CC2CC=CCC2)CC1 (configuration not stated) was tested, and the Potency was inconclusive: 8.91 µM [quencher, side channel, partial curve].
With CCCOc1ccc(C(=O)Nc2nc(C)c(Cc3ccc4c(c3)OCO4)s2)cc1 the Potency was inconclusive: 20 µM [fluorescent, side channel, partial curve].
For CC(C)C(c1nnnn1Cc1ccccc1)N(CCCO)Cc1cc2cc3c(cc2[nH]c1=O)OCO3 (configuration not stated), the Potency was inconclusive: 20 µM [quencher, side channel, partial curve].
In the case of Cc1ccccc1C(=O)OCCN(C)Cc1ccccc1, the Potency is reported as “inactive”.
For CCOC(=O)/C(C#N)=C\c1ccc(OC)c(OC)c1, the Potency was inconclusive: 11.2 µM [quencher, side channel, partial curve].
With COC(=O)c1cc(C(=O)OCC(=O)NCc2ccc3c(c2)OCO3)cc([N+](=O)[O-])c1 the Potency was inconclusive: 2.51 µM [quencher, side channel, full curve, poor fit].
In the case of COC(=O)/C=C/COc1ccccc1[N+](=O)[O-], the Potency is reported as “inactive”.
With N/C(=N\N=C\c1ccco1)SC1CC(=O)N(c2ccc(C(=O)O)cc2)C1=O (configuration not stated) the Potency was inconclusive: 15.8 µM [quencher, side channel, partial curve].
